Measured values from PubChem BioAssay AID485344 (National Center for Advancing Translational Sciences (NCATS), 2010).
“And” between values parts separate entries of the source, which are not always exact repeats. Equal values may be shown once. Hit rate of the full screen: of about 340,000 compounds, about 6,900 (2%) were called active. No stated cut-off is given here; in the data, active means inhibition above about 30%; inactive means below that, where a call was filed. The entries are a selection whose mix differs from that of the whole data set. Entries without a call were filed so in the source.

biological target: D(2) dopamine receptor (Homo sapiens) (UniProt P14416); test: HTS Assay for Allosteric Antagonists of the Human D2 Dopamine Receptor: Primary Screen for Antagonists; conditions: HEK293 TREx D2 cells, calcium flux, dopamine EC80; at 10 µM; stronger effect = higher value; further: 0% is about no effect
Chain of UniProt P14416 (P14416 whole entry, looked up): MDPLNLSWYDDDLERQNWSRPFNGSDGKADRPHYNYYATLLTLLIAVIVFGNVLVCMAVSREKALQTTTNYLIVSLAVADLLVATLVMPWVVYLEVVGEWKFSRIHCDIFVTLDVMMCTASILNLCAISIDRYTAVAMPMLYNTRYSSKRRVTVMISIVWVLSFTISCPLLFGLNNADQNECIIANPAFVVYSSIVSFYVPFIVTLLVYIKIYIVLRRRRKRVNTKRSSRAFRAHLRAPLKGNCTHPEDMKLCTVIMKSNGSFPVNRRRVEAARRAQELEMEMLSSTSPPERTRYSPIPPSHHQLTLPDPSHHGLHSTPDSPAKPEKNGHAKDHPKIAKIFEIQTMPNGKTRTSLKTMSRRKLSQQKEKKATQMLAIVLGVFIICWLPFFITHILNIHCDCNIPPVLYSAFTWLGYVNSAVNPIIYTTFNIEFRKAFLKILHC
Summary of the method: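 Antagonism is scored as inhibition of an EC80 dopamine-evoked calcium signal in a force-coupled, tetracycline-inducible HEK293 T-REx D2 line, with compound present 180 s before agonist.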

SMILES | inhibition
Cc1ccc(C(=O)NCc2ccccc2)cc1NC(=O)c1nsc2ccccc12 | 2.93%
CCOc1ccc(Nc2ncnc3scc(-c4ccc(OC)cc4)c23)cc1 | 21%
CCc1ccc(OCC(=O)Nc2cc(-c3nc4cc(C)ccc4o3)ccc2C)cc1 | -10.6%
CN(Cc1ccc(F)cc1)S(=O)(=O)c1nnc(NC(=O)c2ccccc2)s1 | -12%
CCCNC(=O)C1CCC(CNS(=O)(=O)c2ccc3c(c2)CC(C)N3C(C)=O)CC1 (stereo not given) | 14% and active: 40.5%
Cc1ccc2oc(=O)n(Cc3ccccc3Cl)c2c1 | 0.642%
Cc1ccc2oc(-c3cc(NC(=O)c4oc5ccccc5c4C)ccc3Cl)nc2c1 | 4.56%
C[C@H]1[C@H]2c3nc4ccccc4n3C[C@H]1ON2C1CCCCC1 | active: 31%
CCNC(=S)NC1CC2CCC(C1)N2Cc1ccccc1 (stereo not given) | active: 57%
COc1ccc(C2Oc3nc(SC)nnc3-c3ccccc3N2C(C)=O)cc1 (stereo not given) | 12.2%
COCCCn1c(=O)c2sccc2n2c(CCCC(=O)NCc3ccc(F)cc3)nnc12 | 25.5%
COc1ccc(NC(=O)C2CCN(c3cnccn3)CC2)cc1Cl | -5.3%
Cc1ccc2[nH]c3c(=O)n(CC(=O)NCCc4ccc(Cl)cc4)ncc3c2c1 | -9.52%
Cc1cn2c(=O)c(S(=O)(=O)NCc3ccccc3Cl)c(C)nc2s1 | 6.38%
Cc1cc(C)n(CCc2nc3c4ccccc4nc(N4CCN(c5ccc(F)cc5)CC4)n3n2)n1 | 3.52%
COc1ccc(-c2ccc(CCC(=O)O)n2-c2ccc(Cl)cc2C)cc1 | -18.8%
CCN(C(=O)CSc1nc2ccccc2n1CC(=O)Nc1ccc(F)cc1F)c1ccccc1 | 2.96%
O[C@@H]1CN(Cc2ccc(-n3cccn3)cc2)CC[C@H]1N1CCN(c2ccccc2F)CC1 | active: 38.5%
CCN(C(=O)CSc1nc2n[nH]c(C)c2c(=N)n1-c1cccc(OC)c1)c1cccc(C)c1 | -1.45%
CCOC(=O)c1cccc(NC(=O)CCc2c(C)nn(-c3ccc(N4CCOCC4)nn3)c2C)c1 | 3.29%
COc1ccc(OC)c(NC(=O)c2cc(=O)c3c(C)cc(C)cc3o2)c1 | -6.49%
CCOC(=O)c1c(NC(=O)c2cc(Cl)ccc2Cl)sc2c1CCCC2 | -9.85%
Cc1ccc(CNc2cc(C)nc3nc(-c4cccc(C)c4)nn23)cc1 | -9.96%
Cc1ccc(CNc2nccn(-c3cc(C)cc(C)c3)c2=O)cc1 | 12.6%

SMILES | inhibition
CN(C(=O)CSc1nc2ccc(NC(=O)COc3ccccc3)cc2s1)c1ccccc1 | 4.14%
CCC(C)NC(=O)c1sc2ncccc2c1-n1c(C)ccc1C (stereo not given) | -9.3%
CCOC(=O)c1ccc2[nH]c(CSc3nnc(-c4cccc(F)c4)n3C)cc(=O)c2c1 | 1.97%
Cc1cccc(NC(=O)COc2cccc3c(=O)n(C)ccc23)c1C | -23.1%
CCOc1cc(C2c3c(oc4ccccc4c3=O)C(=O)N2c2ccccn2)ccc1O (stereo not given) | 8.13%
Cc1ccc(C)c(-c2[nH]c3c(c2-c2c(-n4cccc4)n(C)c(=O)n(C)c2=O)c(=O)n(C)c(=O)n3C)c1 | -8.71%
Cc1ccc(-n2nc(C(=O)N3CCN(c4cccc(C(F)(F)F)c4)CC3)c3c4ccccc4n(C)c3c2=O)cc1 | -5.34%
CC(C)CN(CCNC(=O)c1cn(C)c2ccc(S(=O)(=O)N3CCCC3)cc2c1=O)CC(C)C | -3.9%
CCCN(C(=O)CCNC(=O)Cn1cnc2ccccc2c1=O)c1cccc(C)c1 | 5.59%
Cc1nn(-c2ccc(N3CCCCC3)nn2)c(C)c1CCC(=O)NCc1ccc(Cl)cc1 | -0.628%
CCOC(=O)c1c(-c2ccccc2)oc2ccc(N(C(C)=O)S(=O)(=O)c3ccc(C)cc3)cc12 | -3.11%
CCc1ccccc1NC(=O)Cn1cc2c(n1)CCC(C)C2 (stereo not given) | 4.01%
CCC(=O)N1CCc2cc(Br)cc(S(=O)(=O)CCC(=O)NCCc3ccccc3)c21 | -7.84%
O=[N+]([O-])c1ccc(/C=N/NS(=O)(=O)c2ccc(Cl)cc2)o1 | active: 45.4%
Cc1cccc(NS(=O)(=O)c2ccc(NC(=O)N3CCCC3)cc2)c1 | 8.09%
CCOC(=O)c1cc(C)n(CC2CCC(C(=O)Nc3ccc(C(=O)OC)cc3)CC2)c1C (stereo not given) | -5.11%
CS(=O)(=O)N1CCN(c2ccc(NC(=S)NC(=O)c3ccccc3[N+](=O)[O-])cc2)CC1 | active: 32.9%
Cc1ccccc1CNC(=O)Nc1ccc2c(c1)N(C)C(=O)c1ccccc1S2 | -23.1%
COc1ccc(C2CC(=O)N(Cc3ccccc3)c3c2c(C)nn3-c2nc(C)cc(C)n2)c(OC)c1 (stereo not given) | -7.94%
CCOC(=O)c1c(NC(=O)c2ccc(OC)c(OC)c2)sc2c1CCCCC2 | -3.42%
O=C(CCOc1ccccc1)N(Cc1cccnc1)c1nc2ccc(F)cc2s1 | -9.57%
O=C(Nc1ccc2oc(-c3ccc(Cl)cc3)nc2c1)c1ccc2ccccc2c1 | 0.0957%
CCN(CC)c1cc(C)c2cc(NC(=O)c3ccc(F)cc3Cl)ccc2n1 | -4.13%
Oc1cccc(Nc2nc(N3CCOCC3)nc(N3CCOCC3)n2)c1 | active: 36%

SMILES | inhibition
CCOc1ccccc1NC(c1nnc(-c2ccccc2)o1)c1ccc(F)cc1Cl (stereo not given) | -6.8%
Cn1c(=O)oc2cc(S(=O)(=O)N3CCC(C(=O)N4CCN(c5ccc(Cl)cc5)CC4)CC3)ccc21 | -21.7%
CCOc1ccc(CNC(=O)c2ccc3c(c2)nc2n3CCC(C)C2)cc1OC (stereo not given) | -2.85%
CCCCSCCCNC(=O)C1CCC(CNS(=O)(=O)c2c(C)cc(C)cc2C)CC1 (stereo not given) | 8.5%
COc1cccc(C(=O)NC2CC(=O)N(c3ccc4c(c3)OCCO4)C2)c1OC (stereo not given) | 26.1%
CC(=O)c1ccc(NC(=O)CCc2c(C)nn(-c3ccc(N4CCCCC4)nn3)c2C)cc1 | 0.908%
Cc1csc2nc(CCNS(=O)(=O)c3ccc(F)cc3)cn12 | -16.7%
COc1ccc(CNc2ncnc3c2cnn3-c2ccc(C)c(C)c2)cc1 | 9.92%
COc1ccc(CN2C(=O)c3oc4ccccc4c(=O)c3C2c2ccc(O)c(OC)c2)cc1 (stereo not given) | 9.79%
CCc1ccc(-n2nc(C)c3c(C)cc(=O)n(CC(=O)Nc4ccccc4C(=O)OC)c32)cc1 | -2.07%
CCCCOc1ccc(C(=O)N/C(=C\c2ccc(Br)cc2)C(=O)NC2CCCCC2)cc1 | -3.91%
CSCCC(NS(=O)(=O)c1ccc2c(c1)oc(=O)n2C)C(=O)N1CCN(c2ccc(F)cc2)CC1 (stereo not given) | 19.6%
O=C(Nc1cccc(F)c1)C1CCN(c2nc3ccccc3[nH]2)CC1 | 11%
Cc1cccc(-n2ccnc2SCC(=O)Nc2ccc3c(c2)OCO3)c1 | -19.7%
COc1cccc(C(=O)N2CCCC(CCC(=O)NCc3ccc(F)c(F)c3)C2)c1 (stereo not given) | active: 34.4%
Cc1nc2c3ccccc3nc(NNC(=O)CCC(=O)N3CCN(c4cccc(C(F)(F)F)c4)CC3)n2n1 | -17.7%
CCc1cccc(NC(=O)CCS(=O)(=O)c2ccc3nc(C)sc3c2)c1 | 7.03%
Cc1ccc([N+](=O)[O-])cc1NC(=O)CN(C1CCCCC1)S(=O)(=O)c1ccc(Cl)cc1 | active: 52.7%
O=C(CC1SC(N2CCOCC2)=NC1=O)Nc1cc([N+](=O)[O-])ccc1Cl (stereo not given) | active: 54.4%
CCCCCCCC(=O)N/N=C(\C)c1ccc(O)cc1O | active: 71.8%
O=C(CSc1nc2c([nH]c3ccccc32)c(=O)n1-c1ccccc1)N1CCCCCC1 | -13.5%
CC1CCc2c(sc(NC(=O)COc3ccccc3C(C)(C)C)c2C#N)C1 (stereo not given) | -1.46%
Cc1ccc(NC(=O)Cn2c(SCc3ccc(F)cc3)nc3cccnc32)cc1F | -15.1%
O=C(O)c1ccc(NC(=O)c2cc3ccccc3o2)cc1 | 5.6%

SMILES | inhibition
O=c1c2ccccc2[nH]c(=S)n1CCCN1CCN(c2ccccc2F)CC1 | active: 80.8%
COc1ccc(C(=O)NCC(c2cccnc2)N2CCc3ccccc32)cc1OC (stereo not given) | -10.1%
Cc1cccc(CNC(=O)c2ccc(NC(=O)N3CCSc4ccccc43)cc2)c1 | 11.9%
O=C1c2cc3ccccc3c(-c3ccccc3)c2C(=O)N1c1ccccn1 | active: 46.5%
Cc1oc2c(c(C)cc3oc(=O)c(CC(=O)NCc4ccccc4)c(C)c32)c1C | 6.41%
CCOC(=O)c1cc(-c2ccccc2)n(-c2cccc(C(=O)Nc3cccc(C(C)=O)c3)c2)c1C | 5.42%
COc1cccc(N2CCN(C(=O)CN3C(=O)COc4ccc(S(=O)(=O)N5CCC(C)CC5)cc43)CC2)c1 | 19.1%
Cc1c(Cl)cccc1NC(=O)Cn1cc2c(n1)CCCC2 | -2.1%
COc1ccc(C)cc1-n1nnc(C(=O)Nc2cccc(SC)c2)c1C | 13.1%
CNC(=O)c1c(NC(=O)c2ccc(S(=O)(=O)N3CCCCC3C)cc2)sc2c1CCC2 (stereo not given) | -11.2%
Cc1ccc(Nc2c(-c3cccnc3)nc3ccc(Br)cn23)cc1 | 2.15%
COc1ccc(-c2nnc(SCC(=O)N(C)Cc3ccccc3)o2)cc1OC | 13.5%
O=S(=O)(Nc1cccc(-c2ccc(N3CCCC3)nn2)c1)c1ccc(F)c(C(F)(F)F)c1 | 9.23%
Cc1ccc(NC(=O)Cn2cc(S(=O)(=O)N3CCC(C)CC3)c3ccccc3c2=O)c(Br)c1 | 10.5%
Cc1cccc(Oc2ccc3c(c2)Oc2ccccc2NC3=O)c1 | -0.286%
CCCCN(CCCNC(=O)c1c(C)oc2nc[nH]c(=O)c12)Cc1ccccc1 | -12.8%
COc1ccc(CNC(=O)c2cnn(-c3ccc(F)cc3)c2-n2cccc2)cc1 | 13.4%
O=C(Nc1ccc(Cl)cc1)N1CCC(c2ccccc2)C1 (stereo not given) | 14.2%
CCCN(C(=O)Cn1ncc2c([nH]c3ccc(C)cc32)c1=O)c1ccccc1C | 2.44%
CCC(C)NC(=O)CN1C(=O)COc2ccc(S(=O)(=O)N3CCOCC3)cc21 (stereo not given) | 23.6% and active: 43.6%
CCOc1ccccc1NC(=O)c1c(NCc2sccc2C)sc2c1CCC(C)C2 (stereo not given) | -27.9%
COc1cccc(N2CC(NC(=O)/C=C\c3ccc(OC)c(OC)c3)CC2=O)c1 (stereo not given) | -4.39%
Cc1cc(-c2ccc(S(=O)(=O)Nc3ccc(Cl)cc3C)cc2)on1 | 3.22%
